Measured values taken from the supplement of paper PMC4166925.
± gives the standard deviation of the averaged measurements. Whole data set: some 33,000 sequences, median “E-score (dimensionless, -0.5 to 0.5)” near -0.046, cut for the highest 2% near 0.36. This is one part of the list.

System: T1, SpTbr T-box DNA-binding domain (GST fusion)
T1 sequence: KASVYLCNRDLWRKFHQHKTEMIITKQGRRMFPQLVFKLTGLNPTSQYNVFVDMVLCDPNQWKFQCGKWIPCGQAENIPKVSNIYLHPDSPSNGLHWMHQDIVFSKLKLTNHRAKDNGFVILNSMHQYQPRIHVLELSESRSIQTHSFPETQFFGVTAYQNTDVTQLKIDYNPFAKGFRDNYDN
Test: PBM E-score of 8-mer (E-score (dimensionless, -0.5 to 0.5)); Tbr is Tbrain of the sea star Patiria miniata (Pm) or the sea urchin Strongylocentrotus purpuratus (Sp); higher = stronger binding preference; most listed sequences are background and not binding sites
Details: the construct has about 5 more residues each side
Method: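 Universal protein-binding microarray (Agilent AMADID 016060, 60-bp probes with a 35-bp variable region) incubated with 200 nM GST-fused Strongylocentrotus purpuratus Tbr T-box DNA-binding domain (residues 362-554) in PBS pH 7.5. Scored for every ungapped 8-mer (given with its reverse complement) as E-score (range -0.5 to 0.5; >0.45 counts as bound) and Z-score of median probe intensity. Two replicate arrays (datasets 1 and 2).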
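Note: protein at 200 nM in PBS on universal double-stranded arrays.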

Sequence | PBM E-score of 8-mer
CCCATCGA | -0.2033 ± 0.0016
GTAAGTGA | 0.212 ± 0.025
CGATATGA | 0.0535 ± 0.0023
ACTTGCTA | 0.175 ± 0.037
CTCCTCCC | -0.227 ± 0.022
AATTGCTA | -0.00496 ± 0.11
ACCCCCGT | -0.0835 ± 0.017
CCTTACGC | 0.234 ± 0.049
AATTACTA | -0.0984 ± 0.045
CATATTAC | -0.0619 ± 0.059
CATACTCC | -0.197 ± 0.027
AGTTGCTG | 0.0861 ± 0.023
AAGATACG | 0.0921 ± 0.034
CGCATAAG | 0.0206 ± 0.001
GCTGAAAC | -0.125 ± 0.041
AATGCTGG | -0.157 ± 0.0084
AGACTCGC | -0.00607 ± 0.025
ACGGGGCA | -0.207 ± 0.076
ATGAGTCG | -0.176 ± 0.071
GACAGCTA | 0.19 ± 0.053
ATTCTGGG | -0.199 ± 0.01
CCCGCGGA | -0.00551 ± 0.091
AAACCAAG | -0.0255 ± 0.031
ATTAAATA | -0.15 ± 0.14
ATACAGGC | -0.0584 ± 0.0012

Sequence | PBM E-score of 8-mer
CCTGCAAC | -0.0401 ± 0.032
ATTATCAG | -0.0571 ± 0.018
AGATGTAC | -0.2621 ± 0.0025
AGGGTAAC | 0.0635 ± 0.029
CGATGAGA | -0.126 ± 0.083
CCTATGTA | -0.254 ± 0.11
AGCAGGTA | -0.132 ± 0.031
GTATAGAC | -0.196 ± 0.021
ACCAAGGC | -0.0804 ± 0.11
CGCAAACG | 0.041 ± 0.032
CAAACCGG | 0.0381 ± 0.099
CGGCGCTA | 0.152 ± 0.019
GCAGATGA | -0.205 ± 0.02
GCTCTGAA | -0.261 ± 0.022
ATCCGGGA | -0.173 ± 0.028
ATAGTCAC | 0.178 ± 0.039
AGTGTCCG | 0.0673 ± 0.038
AGGATATC | -0.107 ± 0.0085
AAGGTCCC | -0.175 ± 0.003
ACGGTAAC | -0.0798 ± 0.0085
ACGAATCT | 0.000655 ± 0.053
GCCACAAA | 0.12 ± 0.012
CAGACCGA | -0.328 ± 0.0075
CTTGATCA | 0.113 ± 0.004
CGATTCAA | 0.0122 ± 0.082

Sequence | PBM E-score of 8-mer
CATGTGGA | 0.0666 ± 0.051
GGGCTCAC | 0.0842 ± 0.098
ACCAGGTC | -0.0923 ± 0.02
AGACGAAC | -0.0672 ± 0.049
CTCTACAC | 0.0043 ± 0.01
CAGGACAA | -0.0614 ± 0.1
GAAAATCA | -0.119 ± 0.076
CCGTACGA | -0.19 ± 0.043
CCGGCCGC | -0.0792 ± 0.084
CCCACGTA | -0.0631 ± 0.1
AGTCATGC | -0.272 ± 0.064
CTTCACCA | 0.088 ± 0.067
ACACTCAG | 0.232 ± 0.042
AGGAAATA | -0.00822 ± 0.0018
ACAGTGTC | 0.213 ± 0.0024
TGTCAAAA | 0.289 ± 0.021
AATTGTAT | -0.0215 ± 0.075
ATTTTGGA | -0.293 ± 0.0075
CACTTCCC | 0.3234 ± 0.001
AAAAAAGG | -0.0919 ± 0.016
CTGAAATC | -0.129 ± 0.072
CTCTAGGA | -0.251 ± 0.049
AGCCCTGA | -0.235 ± 0.051
AGGAATCA | -0.0267 ± 0.014
AATTCTAT | -0.097 ± 0.025

Sequence | PBM E-score of 8-mer
CCTTTGCG | -0.0181 ± 0.026
ACTGAATC | -0.259 ± 0.018
GAGTCGTA | 0.0581 ± 0.035
GGCCCGTA | -0.255 ± 0.018
GTTGTGTA | -0.0209 ± 0.068
CCAATCAC | 0.204 ± 0.031
TCTAACAA | 0.0792 ± 0.049
TCCCGGCA | -0.0546 ± 0.024
CAAGAAAG | -0.176 ± 0.025
CTTGTATA | -0.114 ± 0.019
CCACCCCC | 0.0722 ± 0.01
AGGAACCA | -0.0655 ± 0.16
AGTACTGC | -0.0583 ± 0.0057
ATGTGCTG | 0.161 ± 0.0054
GTCTGTGA | 0.0568 ± 0.00098
ATACCAAC | 0.0957 ± 0.0081
AATTGCTG | -0.167 ± 0.018
ACACGGCT | 0.165 ± 0.026
CCCTTGCA | -0.0187 ± 0.061
GGAGACGA | -0.227 ± 0.05
CATACGCG | 0.0844 ± 0.0024
GCCATGAA | -0.149 ± 0.023
ATGCGGCC | -0.1019 ± 0.0003
GTCAGACA | -0.0462 ± 0.062
CGGCCACC | -0.111 ± 0.016

Sequence | PBM E-score of 8-mer
TAACCCCA | -0.153 ± 0.022
GCATCGAC | -0.0694 ± 0.062
CCAATGAC | 0.1109 ± 0.00047
GATCGTTA | 0.0958 ± 0.044
CCAGGCGA | 0.0496 ± 0.053
ATCAGCTG | -0.15 ± 0.0088
CTTCCGAA | -0.207 ± 0.016
TCCTAAAA | -0.241 ± 0.046
CACCAGAA | 0.184 ± 0.052
AGGACACA | 0.0518 ± 0.014
GATGACGA | 0.0818 ± 0.016
CGCCAGAA | 0.0206 ± 0.00035
CATTCCAA | -0.139 ± 0.019
TTAGGAAA | -0.26 ± 0.011
CTAGAAGA | -0.2 ± 0.024
AAGCTCCA | -0.245 ± 0.051
ACCGGCCC | -0.217 ± 0.033
AGGAATAC | -0.231 ± 0.07
TGGGGCAA | -0.171 ± 0.032
CGGGTATC | -0.0612 ± 0.15
GCGGTCGA | 0.0401 ± 0.043
ATACACAG | -0.0282 ± 0.04
GGGTTATA | 0.000145 ± 0.01
CATAAAGC | -0.213 ± 0.014
ATATTTAG | -0.139 ± 0.1

Sequence | PBM E-score of 8-mer
GATCCGGA | -0.0653 ± 0.072
ATAGCATC | -0.0717 ± 0.029
AATTTCGC | 0.248 ± 0.033
ATACGGCG | -0.0448 ± 0.032
CACTCTTA | 0.19 ± 0.015
GACACCTC | 0.479 ± 0.009
GCCCGGGC | -0.0983 ± 0.046
GCGTGTCA | 0.313 ± 0.024
ACTCCAGA | 0.00754 ± 0.031
CTTGAAAC | 0.0649 ± 0.033
CTTCGACA | 0.173 ± 0.00078
AGAACGAT | -0.162 ± 0.036
ACTAGTAG | -0.057 ± 0.046
ATGCGCAC | -0.00479 ± 0.036
CGGAATAC | 0.0187 ± 0.058
ACACTCTA | 0.325 ± 0.017
AGGTCTCA | -0.066 ± 0.0096
ATCGTACA | -0.0175 ± 0.049
CATCCTAG | -0.0742 ± 0.097
AGGAAGAG | -0.317 ± 0.032
ACCCGTCT | -0.0132 ± 0.03
ACGGAGAG | -0.0526 ± 0.021
TCCTCACA | 0.3492 ± 0.0024
TACTAAAA | -0.042 ± 0.079
GAGAGTGA | 0.217 ± 0.046

Sequence | PBM E-score of 8-mer
AAATGTCA | -0.00106 ± 0.083
GGGAAACA | -0.00199 ± 0.0083
CCGAACGA | -0.0483 ± 0.014
AGCCCGCG | -0.139 ± 0.018
AATGTATG | -0.166 ± 0.049
ATTTTTTA | -0.209 ± 0.066
GATCGCCA | 0.212 ± 0.1
TGTCGGAA | 0.155 ± 0.016
GACCGGAA | -0.111 ± 0.058
CATCCATG | -0.0897 ± 0.077
CAAACGAC | 0.125 ± 0.046
AAAGCGTG | 0.326 ± 0.022
AGGGCGAA | -0.0427 ± 0.049
CCAGCCCA | -0.348 ± 0.066
CCTGAGGC | -0.0202 ± 0.018
CGTGTTTA | 0.123 ± 0.047
CGCGGACA | 0.134 ± 0.14
CGCTTTAC | -0.169 ± 0.048
AACGGGGA | -0.0588 ± 0.079
GCCAAGGA | -0.177 ± 0.036
GCCTGCGA | 0.292 ± 0.032
GCAATTGA | 0.0237 ± 0.0032
